In all, about 52,000 compounds went through this assay and about 4,300 (8.3%) were called active. No stated cut-off is given here; in the data, active means survival mostly below about 52% (no sharp cut-off); inactive means mostly above about 56%. This is one part of the list.
Test system: DeltatarO mutant
Assay: growth inhibition of S. aureus wild type versus tarO mutant, primary screen, teichoic acid synthesis inhibitors, RN4220, OD600 (AID 463173)
Conditions: OD600, 18 h, stronger effect = lower value, screened at 18.75 µg/mL (by protocol)

Question: With `CC(C)C(NS(=O)(=O)c1ccc2c(c1)oc(=O)n2C)C(=O)NCCc1ccc(Cl)cc1` (centres undefined) as the compound, how does the survival read?
Answer: inactive: 86%

Question: With `CCOc1ccc(Nc2c(S(=O)(=O)c3ccccc3)cnc3ccccc23)cc1` as the compound, how does the survival read?
Answer: active: 38%

Question: For `Cc1ccc2cccc(NC(=O)c3ccc(-c4cccc(Cl)c4)o3)c2n1`, which survival is on record?
Answer: active: 49%

Question: With `COc1ccc(Cl)cc1NC(=O)NCC1CCN(Cc2ccccc2F)CC1` as the compound, how does the survival read?
Answer: inactive: 95%

Question: Which survival does the source give for `CCOc1ccc(OCC)c(NS(=O)(=O)c2cc(-c3onc(C)c3C)ccc2OC)c1` here?
Answer: inactive: 83%

Question: For `CN1C(=O)C2(SCC(=O)N2c2ccc(F)cc2)c2ccccc21` (centres undefined), which survival is on record?
Answer: inactive: 83%

Question: With `CC1=NN(C(=O)c2ccccc2)C(C)(O)C1(C)C` (centres undefined) as the compound, how does the survival read?
Answer: inactive: 98%

Question: For `CCOCCCNC(=O)C(c1ccc(Cl)cc1)N(Cc1cccs1)C(=O)c1ccc(NC(C)=O)cc1` (centres undefined), which survival is on record?
Answer: inactive: 73%

Question: `Cc1ccc(NC(=O)CN2C(=O)C3(SCC(=O)N3c3ccc(F)c(F)c3)c3ccccc32)c(C)c1` (centres undefined) was tested. Which survival did it give?
Answer: inactive: 88%

Question: Which survival does the source give for `CCC(=O)N1CCc2cc(Br)cc(S(=O)(=O)CCC(=O)N(CC)Cc3ccccc3)c21` here?
Answer: inactive: 80%

Question: How did the survival turn out when `CN1/C(=N\O)c2cccc3cccc1c23` was run?
Answer: inactive: 97%

Question: Which survival does the source give for `CC(C)(Oc1ccc(Cl)cc1)C(=O)Nc1nc2ccc(S(C)(=O)=O)cc2s1` here?
Answer: inactive: 69%

Question: Which survival does the source give for `CN(C)c1ccc(C(CNC(=O)c2c(F)cccc2Cl)N2CCOCC2)cc1` (centres undefined) here?
Answer: active: 25%

Question: How did the survival turn out when `CCN(C(=O)C1CCN(c2ncnc3c2nc2n3CCCCC2)CC1)c1cccc(Cl)c1` was run?
Answer: inactive: 79%

Question: For `O=C(NCC(c1ccc2c(c1)OCO2)N1CCOCC1)c1c(F)cccc1F` (centres undefined), which survival is on record?
Answer: inactive: 69%

Question: For `COc1ccc(-n2ccnc(NCc3ccc(C)cc3)c2=O)cc1OC`, which survival is on record?
Answer: inactive: 94%

Question: For `Cc1cccc(N2CCN(c3nc4ccc(C)cc4n4cnnc34)CC2C)c1` (centres undefined), which survival is on record?
Answer: inactive: 76%

Question: With `CC1(C)Cc2ccccc2/C(=C/C(=O)N2CCCCCC2)N1` as the compound, how does the survival read?
Answer: inactive: 81%

Question: `CCn1cc(C(=O)NCCc2ccc(Cl)cc2)c(=O)c2cc(S(=O)(=O)N3CCC(C)CC3)ccc21` was tested. Which survival did it give?
Answer: inactive: 105%

Question: How did the survival turn out when `O=C(NC1CCCCC1)c1ccc2c(c1)N(Cc1ccc(Cl)cc1)C(=O)c1ccccc1S2=O` (centres undefined) was run?
Answer: inactive: 87%

Question: `O=C(c1ccc(F)cc1)n1nc(-c2ccccc2)nc1NCc1ccco1` was tested. Which survival did it give?
Answer: active: 18%

Question: How did the survival turn out when `COc1ccc(N(CC(=O)N2CCN(c3ccccc3F)CC2)S(=O)(=O)c2c(C)n[nH]c2C)cc1` was run?
Answer: inactive: 119%

Question: `Cc1cccc(NC(=O)CCNS(=O)(=O)c2cccc3nsnc23)c1C` was tested. Which survival did it give?
Answer: inactive: 50%

Question: With `CCOc1ccc(N2C(=O)CC(N(CCc3ccccc3)C(C)=O)C2=O)cc1` (centres undefined) as the compound, how does the survival read?
Answer: inactive: 94%

Question: Which survival does the source give for `CCN1CCN(CCCNC(=O)c2ccc3nc(Cc4ccccc4)oc3c2)CC1` here?
Answer: inactive: 105%

Question: With `COc1ccc(N2CCN(C(=O)c3cc(S(=O)(=O)N4CCC(C)CC4)cn3C)CC2)cc1` as the compound, how does the survival read?
Answer: inactive: 75%

Question: `O=C(CO)N/N=C\c1c(F)cccc1Cl` was tested. Which survival did it give?
Answer: inactive: 51%

Question: Which survival does the source give for `O=C(CCSc1nc(-c2ccco2)cc(C(F)(F)F)n1)N1CCCC1` here?
Answer: inactive: 97%

Question: With `COc1cccc(CNC(=O)CCc2c(C)c3cc4c(C)coc4c(C)c3oc2=O)c1` as the compound, how does the survival read?
Answer: inactive: 55%

Question: How did the survival turn out when `CCc1ccccc1NC(=O)CCS(=O)(=O)c1cccc2nonc12` was run?
Answer: inactive: 74%

Question: Which survival does the source give for `COc1ccc(OCC(=O)N2CCN(C(=O)c3cccc(OC)c3)CC2)cc1` here?
Answer: inactive: 72%

Question: With `COc1ccccc1NC(=O)c1sc2nc(C)c(C(=O)Nc3ccc(C)cc3C)c(-c3ccc(C)o3)c2c1N` as the compound, how does the survival read?
Answer: inactive: 69%

Question: For `CCn1c(C)c(C)c2cc(C(=O)NCc3cccc(C)c3)ccc21`, which survival is on record?
Answer: inactive: 95%

Question: Which survival does the source give for `Cc1cccc(C(=O)Nc2ccc(C(=O)OCc3cc(=O)n4nc(CC(C)C)sc4n3)cc2)c1` here?
Answer: inactive: 99%

Question: How did the survival turn out when `COc1ccc(NC(=O)/C=C\C(=O)N(c2ccc(C(C)C)cc2)C(C(=O)NCc2ccco2)c2ccc(F)cc2)cc1` (centres undefined) was run?
Answer: inactive: 83%

Question: How did the survival turn out when `O=C(c1ccccc1)N(Cc1ccco1)Cc1cccs1` was run?
Answer: active: 41%

Question: For `COc1cccc(N2CCN(C(=O)c3ccc(NC(=O)c4nsc5ccccc45)cc3)CC2)c1`, which survival is on record?
Answer: inactive: 64%

Question: Which survival does the source give for `COc1ccc(NC(=O)c2ccco2)cc1NC(=O)COc1ccc(Cl)cc1C` here?
Answer: inactive: 57%

Question: With `Cc1ccc(C(=O)NCc2ccc(F)cc2)cc1NC(=O)c1nsc2ccccc12` as the compound, how does the survival read?
Answer: inactive: 95%

Question: With `CCN(CC)CCNC(=O)c1sc2ncccc2c1-n1cccc1` as the compound, how does the survival read?
Answer: inactive: 102%

Question: `Cc1ccc(NC(=O)CSc2nc(-c3ccccc3Cl)nc3cc(=O)[nH]n23)c(C)c1` was tested. Which survival did it give?
Answer: inactive: 74%

Question: For `Cc1ccc(C(c2sc3nc(-c4ccco4)nn3c2O)N2CCC3(CC2)OCCO3)cc1` (centres undefined), which survival is on record?
Answer: inactive: 78%

Question: With `CCc1cccc(Nc2ncnc3onc(-c4ccc(F)cc4)c23)c1` as the compound, how does the survival read?
Answer: inactive: 87%

Question: For `COC(=O)c1c(C)nn(-c2ccc(F)cc2)c1-n1cccc1`, which survival is on record?
Answer: inactive: 100%

Question: With `CCOc1ccccc1C(=O)NC1CC2CCCC(C1)N2Cc1nnnn1Cc1ccco1` (centres undefined) as the compound, how does the survival read?
Answer: inactive: 74%

Question: For `COc1ccc(OC)c(C2NC(=O)NC(C)=C2C(=O)Nc2ccc(F)cc2)c1` (centres undefined), which survival is on record?
Answer: inactive: 80%

Question: With `COc1cccc(N2CCN(S(=O)(=O)c3ccc(-c4ccno4)cc3OC)CC2)c1` as the compound, how does the survival read?
Answer: inactive: 64%

Question: Which survival does the source give for `O=C(CSc1cn(CC(=O)N2CCCCC2)c2ccccc12)Nc1ccc(C(F)(F)F)cc1` here?
Answer: inactive: 77%

Question: For `COc1cc(C(=O)Nc2nonc2-c2ccc(C)c(C)c2)cc(OC)c1OC`, which survival is on record?
Answer: inactive: 79%

Question: How did the survival turn out when `COc1ccc(C)cc1-n1cnc2cc(C(=O)NC3CCCC3)ccc21` was run?
Answer: inactive: 119%

Question: Which survival does the source give for `Cc1cc(C)n2c(SCC(=O)N(C)C3CCCCC3)nnc2n1` here?
Answer: inactive: 80%

Question: Which survival does the source give for `CCCN1C2CCCC1CC(NC(=O)Nc1ccc(SC)cc1)C2` (centres undefined) here?
Answer: inactive: 80%

Question: For `Cc1cc(C)cc(-n2c(SCC(=O)Nc3ccc4c(c3)OCCO4)nc3c([nH]c4ccccc43)c2=O)c1`, which survival is on record?
Answer: inactive: 126%

Question: For `Cn1cc(S(=O)(=O)c2ccccc2)c(=O)c2cc(F)c(N3CCCCCC3)cc21`, which survival is on record?
Answer: inactive: 100%

Question: How did the survival turn out when `Cn1c(=O)n(C)c2cc(N3CCCCC3)c(NC(=O)c3ccc(C(C)(C)C)cc3)cc21` was run?
Answer: inactive: 93%

Question: With `COc1ccc(CNC(=O)CCc2nc(-c3ccc(C)cc3)no2)c(OC)c1` as the compound, how does the survival read?
Answer: inactive: 122%

Question: `O=C(Nc1ccc2nc(SCC(=O)N3CCc4ccccc43)sc2c1)c1ccccc1F` was tested. Which survival did it give?
Answer: inactive: 119%

Question: For `CC1=C(c2ccc(C)c(C)c2)S(=O)(=O)N=C1N1CCC(C(=O)NC(C)Cc2ccco2)CC1` (centres undefined), which survival is on record?
Answer: inactive: 83%

Question: `COc1cccc(C(=O)Nc2ccccc2-c2nnc(-c3cccc(OC)c3)o2)c1` was tested. Which survival did it give?
Answer: inactive: 41%

Question: `CC(=O)Nc1ccc(S(=O)(=O)NC2(C(F)(F)F)NC(=O)N(CCc3ccc(F)cc3)C2=O)cc1` (centres undefined) was tested. Which survival did it give?
Answer: inactive: 131%

Question: For `CCOC(=O)Cc1cc(=O)n2[nH]c(-c3ccccc3)cc2n1`, which survival is on record?
Answer: inactive: 92%

Question: Which survival does the source give for `CCOc1cc(CNC(=O)Cn2c(-c3cccs3)cc3cc(F)ccc32)ccc1OC` here?
Answer: inactive: 89%

Question: Which survival does the source give for `Cc1ccc(Cl)cc1NC(=O)CCC(=O)NCc1ccco1` here?
Answer: inactive: 74%

Question: For `O=C1NC(=Nc2ccccc2)S/C1=C\c1ccc(C(=O)O)cc1`, which survival is on record?
Answer: inactive: 93%

Question: With `Cc1ccc(-n2c(SCC(N)=O)nc3c(oc4ccccc43)c2=O)cc1C` as the compound, how does the survival read?
Answer: inactive: 97%

Question: How did the survival turn out when `Cc1ccccc1Nc1c(-c2cccs2)nc2cccc(C)n12` was run?
Answer: inactive: 63%

Question: How did the survival turn out when `CC1Cc2cc(S(=O)(=O)N(Cc3ccccc3)C(C)C)ccc2N1C(=O)C1CCC1` (centres undefined) was run?
Answer: inactive: 73%

Question: For `Cc1cc(C(=O)Nc2c(C)nc3ccccn3c2=O)ccc1[N+](=O)[O-]`, which survival is on record?
Answer: inactive: 92%

Question: How did the survival turn out when `O=C(CSc1nc2c([nH]c3ccccc32)c(=O)n1-c1ccc(Cl)cc1)NCC1CCCO1` (centres undefined) was run?
Answer: inactive: 78%

Question: With `CCOc1ccc(/C=C/c2nc(C#N)c(NCCc3ccccc3)o2)cc1` as the compound, how does the survival read?
Answer: inactive: 78%

Question: Which survival does the source give for `CCOC(=O)c1c(C)oc2nc(C)nc(NCc3ccccc3OC)c12` here?
Answer: inactive: 75%

Question: How did the survival turn out when `COc1ccccc1NC(=O)Cn1c(=O)n(CCCCCC(=O)NCc2ccccc2)c(=O)c2sccc21` was run?
Answer: inactive: 54%

Question: For `Cn1c(=O)c2c(nc(NCCN3CCOCC3)n2C)n(C)c1=O`, which survival is on record?
Answer: inactive: 81%

Question: Which survival does the source give for `COc1ccc2c(c1)NC(c1cccnc1)=NC(c1ccc(F)cc1)=N2` here?
Answer: inactive: 82%

Question: For `Cc1ccc(S(=O)(=O)c2cn(Cc3ccccc3Cl)c3ccc(F)cc3c2=O)cc1`, which survival is on record?
Answer: inactive: 84%

Question: Which survival does the source give for `COc1ccc(Br)cc1CNC(=O)c1ccc2c(c1)N(Cc1ccc(C)cc1)CCS2` here?
Answer: inactive: 78%

Question: With `Cc1ccc(CN2C(=O)c3ccccc3Sc3ccc(C(=O)OCc4ccco4)cc32)cc1` as the compound, how does the survival read?
Answer: inactive: 99%

Question: Which survival does the source give for `O=c1ccccn1Cc1cn2ccccc2n1` here?
Answer: inactive: 104%

Question: With `CCOCCCn1c(=N)c(C(=O)NCC2CCCO2)cc2c(=O)n3cccc(C)c3nc21` (centres undefined) as the compound, how does the survival read?
Answer: inactive: 65%

Question: How did the survival turn out when `COC(=O)C(C)Sc1cc(C)c2ccccc2n1` (centres undefined) was run?
Answer: inactive: 76%

Question: `CCOC(=O)Cc1cc(=O)n2[nH]cc(C#N)c2n1` was tested. Which survival did it give?
Answer: inactive: 93%

Question: For `COC(=O)C1=C(c2ccccc2)c2ccccc2S(=O)(=O)N1CC(=O)Nc1ccccc1Cl`, which survival is on record?
Answer: inactive: 37%

Question: How did the survival turn out when `Cc1cccc(NS(=O)(=O)c2ccc3c(c2)CCN3C(=O)C2CCC2)c1` was run?
Answer: inactive: 69%

Question: With `Cc1cccc2cc(CN(Cc3ccco3)Cc3nnnn3CCc3ccccc3)c(=O)[nH]c12` as the compound, how does the survival read?
Answer: inactive: 84%

Question: `COC(=O)C1CCN(S(=O)(=O)c2cc3c4c(c2)CC(=O)N4CCC3)CC1` was tested. Which survival did it give?
Answer: active: 37%

Question: `O=C(c1cccs1)N1CCCc2cc(NS(=O)(=O)c3ccc(F)cc3F)ccc21` was tested. Which survival did it give?
Answer: inactive: 79%

Question: With `CCCN(CCC)CCCNC(=O)Cn1cnc2sc(C)c(S(=O)(=O)N3CCC(C)CC3)c2c1=O` as the compound, how does the survival read?
Answer: inactive: 74%

Question: How did the survival turn out when `COc1ccc(-c2nn(-c3cccc(F)c3)c3c2cnc2cc(OC)c(OC)cc23)cc1` was run?
Answer: inactive: 67%

Question: `O=C(CCCCn1c(=O)c2ccccc2n(CC(=O)Nc2cccc(F)c2)c1=O)NCCc1ccccc1` was tested. Which survival did it give?
Answer: inactive: 78%
